Structures are written as SMILES. In all, about 150,000 compounds went through this assay and about 540 (0.36%) showed an effect of 50% or more. Some of the results follow.

This assay has as its system Plasmodium falciparum. Put plainly: Primary screen in NF54 nanoGlo assay, in single point, at 2uM, 72h; a lower Z score goes with more inhibition. The assay is classed as functional, Erythrocyte. To be noted: timepoint 72 hour.
On to `C[C@@H]1CN(C[C@@H]2CN(CCOCc3ccccc3)C[C@@H]2CO)C[C@H](C)O1`, for which the “% Inhibition” value stood at 27% and the Z score is 0.41.
For `Cc1ccc(Nc2nc(N)nc(CN3CCOCC34CCC4)n2)cc1` the same measures were 17% and -2.02.
For `CCCc1nc(C)c(CN2CCC[C@@](O)(c3ccccc3)CC2)o1` the same measures were -8% and 1.02.
For `COc1ccc(NC(C)=O)cc1NC(=O)CCCN1C(=O)c2ccncc2C1=O` the same measures were -11% and 1.13.
For the compound `O=C(Cn1cc(C2CC2)nn1)NCC1CC12CCCc1ccccc12` (centres undefined), the “% Inhibition” value is -10% and the Z score was 1.4.
On to `CC(C)[C@](C)(O)C#CCN1CCCCC1`, for which the “% Inhibition” value is 0% and the Z score worked out at 0.06.
For `O=C(Cn1c(=O)[nH]c2c(-c3ccccc3)c[nH]c2c1=O)N1CCOCC1`, in that order: -3% and 0.4.
For `C=CCNS(=O)(=O)c1ccc(OCCCC)c(C(C)C)c1` the same measures were -24% and 2.78.
For `COCCN1C[C@]2(CCCN(C(=O)c3n[nH]nc3C)C2)CCC1=O` the same measures were -3% and 0.33.
On to `CC1CCC(C(=O)NCC(O)C(C)(C)C)O1` (centres undefined), for which the “% Inhibition” value was -18% and the Z score is on record as 1.58.
For `CCc1nnc([C@@H]2CC(F)(F)CN2Cc2cnn(C(C)C)c2)o1`, in that order: -3% and 0.56.
For the compound `Cc1cc(C)n([C@@H](C)c2nc(CC(C)C)n[nH]2)n1`, the “% Inhibition” value is given as 7% and the Z score is recorded as -1.42.
For `N#Cc1cccc(OS(=O)(=O)c2ccc3c(c2)OCCO3)c1`, in that order: -17% and 1.46.
On to `COCC1(CNC(=O)[C@H]2CC[C@@H](O)CC2)CCC1`, for which the “% Inhibition” value is -9% and the Z score turned out to be 1.2.
In the case of `O=C(COc1ccccc1)n1nc(NCc2ccccc2Cl)nc1NCc1ccccc1Cl`, the “% Inhibition” value is -7% and the Z score was determined as 0.86.
In the case of `O=C(CC1CC2CCC1C2)N1CCC(O)CC1` (centres undefined), the “% Inhibition” value is given as 0% and the Z score was 0.05.
For `CC(C)C(c1ccccc1)C(NC(=O)OC(C)(C)C)C(=O)O` (centres undefined), in that order: -8% and 1.41.
For `CC(NCC(C)(O)c1cnn(C)c1)c1cc2c(s1)CCC2` (centres undefined) the same measures were -16% and 1.58.
For `CC1([C@H]2CCCN(Cc3nsc4ccccc34)C2)OCCO1` the same measures were 1% and -0.13.
As to `CCOCCCN/C(=N/c1ccc(C(=O)O)cc1)N1CCN(c2ccccc2F)CC1`, the “% Inhibition” value is listed as -1% and the Z score is recorded as 0.13.
For `O=C1CC2CCC(CN1)N2C(=O)c1ccon1` (centres undefined), in that order: -3% and 0.58.
In the case of `Cc1nnc(CC(=O)NC2CC(OCc3ccccc3)C2(C)C)o1` (centres undefined), the “% Inhibition” value is recorded as 29% and the Z score was -0.73.
On to `C[C@H]1CCCCN1C(=O)CN1CCN(CC(=O)NCc2cccs2)CC1`, for which the “% Inhibition” value is given as 0% and the Z score is reported as -0.01.
For `O=C(CN1C(=O)COc2cccnc21)N1CCO[C@H](c2ccccc2)C1`, in that order: -16% and 2.7.
For `COCCN1C[C@@H](Cc2cc(C)nc(C(C)C)n2)CC1=O` the same measures were 4% and -0.72.
For `C[C@H]1CN(C)c2ccccc2CN1C(=O)NC1CCCC1CNS(C)(=O)=O` (some centres undefined), in that order: 3% and -0.64.
With `COCCc1noc(-c2nn(-c3ccccc3F)c3c2CCC3)n1`, the “% Inhibition” value is reported as -10% and the Z score was found to be 0.98.
Consider `CCc1nc(C)sc1C(=O)N1CCS(=O)(=O)CC1`, for which the “% Inhibition” value is -12% and the Z score was 2.34.
For `CS(=O)(=O)N1CCN(C(=O)c2cc3cc(C(F)(F)F)cnc3[nH]2)CC1`, in that order: 6% and -0.99.
For the compound `O=C(N1CCOCC1)N1CC[C@H](Oc2ncc(F)cn2)C1`, the “% Inhibition” value is on record as -11% and the Z score stood at 1.65.
For `CCOc1cccc(-n2cc(-c3ccccc3)nc2NC(=O)CN(CC2CC2)C(=O)c2ccc(C)cc2)c1`, in that order: -7% and 1.04.
For `CC(C)(C)c1ccc(Cn2c(C(N)=O)cc3cc(NC(=O)c4ccc(C(C)(C)C)cc4)ccc32)cc1` the same measures were -3% and 0.47.
Consider `Cc1oc2c(c1C(=O)N1CCCC1)CN(Cc1cccc(F)c1)CC2`, for which the “% Inhibition” value is recorded as 4% and the Z score is listed as -0.43.
For `Cc1c(CN(C)C(=O)CCN(C)[C@H]2CCN(C)C2)[nH]c2ccccc12` the same measures were -15% and 2.12.
For `CCN(CC(F)(F)F)C(=O)NCCc1scnc1C`, in that order: -10% and 1.44.
For `COCc1nc2n(n1)CC(NC1CCCCc3ccccc31)CC2` (centres undefined) the same measures were -16% and 2.36.
On to `Cc1cc(CN(C)c2cc(C(=O)N3CCOCC3)ccn2)no1`, for which the “% Inhibition” value is recorded as 1% and the Z score was -0.12.
For `Cc1cc(C)c2ncn([C@H]3CCC(=O)N(C)C3)c(=O)c2c1`, in that order: -21% and 2.47.
For `CC(C)C1(C(=O)N2CCC(n3cn[nH]c3=O)CC2)COC1` the same measures were -6% and 1.3.
On to `Cc1ccc2[nH]cc(-c3ncccc3C(=O)O)c2c1`, for which the “% Inhibition” value is reported as -15% and the Z score is recorded as 1.96.
Take `CCOC(=O)Nc1cccc(N[C@@H](C)c2cnn(C)c2)c1C`: the “% Inhibition” value amounted to 5% and the Z score is -0.48.
Turning to `CCC(=O)c1cccc(S(=O)(=O)Nc2ccc3[nH]nnc3c2)c1`, the “% Inhibition” value is -14% and the Z score stood at 1.31.
